# Test results taken from paper PMC5945890.
# These are yes or no findings as the source states them, for the method shown. Some entries that bind do so weakly or less than the wild type. Where a sequence is shown, tags or fusion partners need not be part of it.
# T1: cleavage and polyadenylation specificity factor 30-L (CPSF30-L), BD fusion for yeast two-hybrid (Arabidopsis thaliana) (UniProt A9LNK9)
# T1 sequence: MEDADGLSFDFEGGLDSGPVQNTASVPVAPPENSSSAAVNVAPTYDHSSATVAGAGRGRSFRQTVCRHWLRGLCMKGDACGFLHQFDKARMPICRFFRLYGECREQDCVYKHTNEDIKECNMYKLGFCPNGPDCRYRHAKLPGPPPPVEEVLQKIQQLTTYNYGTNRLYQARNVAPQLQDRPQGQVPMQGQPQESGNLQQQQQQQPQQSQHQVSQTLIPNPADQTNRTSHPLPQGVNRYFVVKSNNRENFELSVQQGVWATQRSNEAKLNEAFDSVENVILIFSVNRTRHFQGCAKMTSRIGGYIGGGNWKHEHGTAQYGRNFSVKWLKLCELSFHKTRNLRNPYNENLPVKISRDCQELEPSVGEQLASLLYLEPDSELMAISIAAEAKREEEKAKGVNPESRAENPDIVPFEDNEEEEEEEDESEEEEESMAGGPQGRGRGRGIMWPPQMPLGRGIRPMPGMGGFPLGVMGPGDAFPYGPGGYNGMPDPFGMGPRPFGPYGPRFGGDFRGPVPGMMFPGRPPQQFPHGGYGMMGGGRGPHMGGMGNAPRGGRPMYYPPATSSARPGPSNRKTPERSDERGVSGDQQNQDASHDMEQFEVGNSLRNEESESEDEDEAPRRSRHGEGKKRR
# T2: mCPSF30-L (CPSF30-L with Gly to Arg at the 126th amino acid), BD fusion for yeast two-hybrid (Arabidopsis thaliana) (UniProt A9LNK9)
# T2 sequence: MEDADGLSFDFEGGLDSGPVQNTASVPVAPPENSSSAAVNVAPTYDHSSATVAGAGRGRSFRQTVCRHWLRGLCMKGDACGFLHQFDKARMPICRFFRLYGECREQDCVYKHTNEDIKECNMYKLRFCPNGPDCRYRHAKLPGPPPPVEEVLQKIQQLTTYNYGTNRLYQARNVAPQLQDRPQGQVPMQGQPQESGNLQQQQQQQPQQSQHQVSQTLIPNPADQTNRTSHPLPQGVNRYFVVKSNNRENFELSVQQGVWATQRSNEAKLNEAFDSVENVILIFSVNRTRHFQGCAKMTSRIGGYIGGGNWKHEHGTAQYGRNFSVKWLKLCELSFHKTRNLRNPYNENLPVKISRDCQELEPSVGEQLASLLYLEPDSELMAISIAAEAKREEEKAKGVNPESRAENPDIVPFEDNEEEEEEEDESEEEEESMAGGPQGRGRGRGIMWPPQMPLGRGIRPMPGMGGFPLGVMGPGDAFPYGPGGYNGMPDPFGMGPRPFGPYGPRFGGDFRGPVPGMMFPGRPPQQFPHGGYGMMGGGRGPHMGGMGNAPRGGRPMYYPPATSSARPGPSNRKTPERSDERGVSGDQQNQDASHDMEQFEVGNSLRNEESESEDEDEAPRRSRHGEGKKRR
# Experiments:
# [1] = target: T1, cleavage and polyadenylation specificity factor 30-L (CPSF30-L), BD fusion for yeast two-hybrid (Arabidopsis thaliana); test: two-hybrid; yeast two-hybrid (Clontech); CPSF30-L or mCPSF30-L in pGBKT7 (BD) as bait, FIP1, FIP1-S1 or FIP1-S2 in pGADT7 (AD); interaction tested on QDO (SD medium lacking leucine, tryptophan, histidine and adenine)
# [2] = target: T2, mCPSF30-L (CPSF30-L with Gly to Arg at the 126th amino acid), BD fusion for yeast two-hybrid (Arabidopsis thaliana); test: as above
Binder,binding [1],binding [2]
"FIP1 (factor interacting with poly(A) polymerase 1), AD fusion for yeast two-hybrid (protein, UniProt F4KDH9 1-1196) MEEDDEFGDLYSDVLQPFQPPVVLPPPPPLPHRSIDLNLRSQDQDVSEPNSAPISRVSDNDAVKLSTQDATRQAIVDGGGDDKDMSFDIEEPDADSTPTIPGLFVTGALPGLATDRGVSQVTTRIEQQVGGGGDGGYGGQGEGDDWDSDSEDDLQIVLNDSSRNVMIGGADRRSRMGDNEDDDDEDDEDPLVIVADTDPNQPMEEQMWGEDGLQGIEGDGKDGGEAGKGSGPGGATGPPKAGYSSHGYHPFHSQFKYVRPGAAPIPGGAASVGGPSSGQVRPPANLGPMAGRGRGDWRPLGMRNASAAQKGFHQPWGSNTAGRGLDFTLPSHKTIFEVDIDSFEEKPWRYPGVEMTDYFNFGLNEESWKDYCKQLDQHRIQTTMQSRIRVYESGRTDQGYDPDLPPELAAATGAQGVPVDSSNLVKPDSVQGDSAKVPANVRPTLPPGRPIPVETGSGERLPSIDTRAPRMRDLDAIIEIVCQDSHEDEPSGENGTDQADSSLPGENVPVETSYVNNKRPDTESAEHSPAQDEPHKNLLKKQDDEISRSTDSGQSFRSSSPVGDRGTRSSSVDREDVGGEAGKDAEMGEELKMSFTSPQSAVQEDDGGESKTERSSESSKARSGSHRDFQQEEDVIQDKHSSRPANNRKQYDNNAPHQSRKNQDRGKEMERTRAASKGGRENSNPHMELDSTYIYSIASREDFDKRKERDVDGAVWRRKEDDPYSRRGGDEGSRKRDREDDPGFRQRGKMRENEIRSKDDQVPSRKHMDDAGMRNIYEPDDHINKRRKDEEYLRRSRPEKNEISYGQRESMSRVKRERDDRLEHQKRDVQHKIRDDFDDHGSLRQRDDIYMQRDGNERLRERDVLDKLKLPHEDGISARGRERQVAVRGHRGSEDRSSRMKDEYKASDKEHVTKDTLRHAKQTKRRDYPGEESSSHHRGHEDFSARTDNIVNNEKKPRQERTGAKIDKFIDTLDGQRLQDRKHKDSRRKIKEQREGTESLSKQGEQNGSSVVTGSKGTNDARNCRSEIPHQPNTAKRHKENASSGDEIHDSKRGRTKLERWASHKEREDAVSAKSSSISSKLEEKENNTNGRLSEPVHGSIGKSRDVTEEKIGHDLADTKDGSEKGPGDRHLDTVEKLKKRSERFKLPMPTEKDTTGVKKMESETLPSAKIEGPVDSEGEYVWDERSCVRIGREYA",binds,no binding
"FIP1-S1 (N-terminal 445 amino acid residues of FIP1), AD fusion for yeast two-hybrid (domain or fragment, UniProt F4KDH9 1-445) MEEDDEFGDLYSDVLQPFQPPVVLPPPPPLPHRSIDLNLRSQDQDVSEPNSAPISRVSDNDAVKLSTQDATRQAIVDGGGDDKDMSFDIEEPDADSTPTIPGLFVTGALPGLATDRGVSQVTTRIEQQVGGGGDGGYGGQGEGDDWDSDSEDDLQIVLNDSSRNVMIGGADRRSRMGDNEDDDDEDDEDPLVIVADTDPNQPMEEQMWGEDGLQGIEGDGKDGGEAGKGSGPGGATGPPKAGYSSHGYHPFHSQFKYVRPGAAPIPGGAASVGGPSSGQVRPPANLGPMAGRGRGDWRPLGMRNASAAQKGFHQPWGSNTAGRGLDFTLPSHKTIFEVDIDSFEEKPWRYPGVEMTDYFNFGLNEESWKDYCKQLDQHRIQTTMQSRIRVYESGRTDQGYDPDLPPELAAATGAQGVPVDSSNLVKPDSVQGDSAKVPANVRPTL",binds,–
